From PMC9861830, “Hydroxylated Coumarin-Based Thiosemicarbazones as Dual Antityrosinase and Antioxidant Agents” (International Journal of Molecular Sciences, 2023)

Assay: Potentiometric and spectrophotometric titrations (protonation constants, speciation)
Assay type: physicochemical
Conditions: 25 °C, NaCl 0.1 M; fifth line, printed L^3-+4H^+⇌H4L^2+
Description: Potentiometric titrations were performed in a thermostated vessel at 25 °C in 0.1 M ionic strength (NaCl) using a Mettler-Toledo Seven Compact pH/Ion-meter and equipped with a Mettler-Toledo InLab Micro Pro combined glass electrode with an integrated temperature probe. The glass electrode was calibrated daily and checked using the GLEE software package. UV–visible (UV–Vis) measurements were carried out with an Agilent Cary 60 spectrophotometer using a 0.1 cm quartz cuvette. Protonation constants of the studied molecules were determined via spectrophotometric and potentiometric titrations. Solutions of ligands were prepared daily by dissolving a suitable amount of the compound in DMSO (concentration ≈ 12 mM) prior to the required dilution in 0.1 M NaCl (final DMSO content 1% V/V, concentration ≈ 1.2∙10^−4 M). Four HCl equivalents for T1, five for T2–4, and six for T5–6 were added before titrating with an NaOH standard solution. Potentiometric and spectrophotometric data were simultaneously analysed using the Hyperquad 2006 software package. Speciation diagrams were obtained using Hyss 2009 program with the spectrophotometric data. The number of linearly independent absorbing species was found by applying the eigenvalue analysis to the absorbance data matrix.

Logβ	pK	Compound
33.2 (1)	3.7	C/C(=N\NC(N)=S)c1cc2cc(O)c(O)cc2oc1=O [T5, (1E)-2-(1-(6,7-dihydroxy-2-oxo-2H-chromen-3-yl)ethylidene)hydrazine-1-carbothioamide]
33.0 (1)	3.5	C/C(=N\NC(N)=S)c1cc2ccc(O)c(O)c2oc1=O [T6, (1E)-2-(1-(7,8-dihydroxy-2-oxo-2H-chromen-3-yl)ethylidene)hydrazine-1-carbothioamide]
